Laboratory results published in PubChem BioAssay AID504339 (National Center for Advancing Translational Sciences (NCATS), 2011).
In all, about 390,000 compounds went through this assay and about 17,000 (4.4%) were called active. Calls come from the whole dose curve; as a rule, active = well fitted inhibition curve with a large enough effect; inconclusive = small, poorly fitted or top-dose-only effect; inactive = no such curve, though single readings can be large or run the other way. Inconclusive results, whose numbers are uncertain, are shown. Potencies of inconclusive entries are doubtful fits and often do not repeat.

biological target: Lysine-specific demethylase 4A (Homo sapiens) (UniProt O75164); test: qHTS Assay for Inhibitors of JMJD2A-Tudor Domain; conditions: AlphaScreen JMJD2A-Tudor / H3K4me3 peptide binding; series mostly up to 114 µM; note: nearly all actives have a fitted effect of over 50% in size
From the text: JMJD2A is a jumonji-domain-containing lysine demethylase that uses Fe(II) together with 2-OG to effect oxidative demethylation of histones. Methylation is one of many […] modification that affect epigenetic transcription. […] It is proposed that the functions of JmjD2A binding to the histones, is to maintain marks after they are installed and to spread the modifications by […], establishing a self-propagating cycle for rapid methylation over a large area of chromatin. […] Thus, small molecule targeting of the JMJD2A-tudor domain interaction with its target methylhistone mark is expected to enable sophisticated experiments probing the fine regulatory pathways leading to selective demethylation of a given methyllysine locus based on the methylation state of adjacent histone marks. A quantitative high throughput AlphaScreen has been developed to identify small molecule inhibitors based on a protocol published by NCGC and SGC [4].
Although AlphaScreen has significant advantages with its utility in a variety of epigenetic target assays, the primary screening data provided in this deposition should be used with caution due to the prevalence of screening artifacts. The top compound concentration tested was high (>100uM) in this assay, which increases number of actives and potential artifacts. An AlphaScreen counterscreen is highly recommended to be run against any putative actives to eliminate non-specific artifacts. Alternatively, one can use other AlphaScreen assays in PubChem to filter out promiscuous hits.
[1] Lee, J. et al. Distinct binding modes specify the recognition of methylated histone H3K4 and H4K20 by JMJD2A-tudor. Nat Struct Mol Biol. 15(1); 109-11. 2008. PMID: 18084306
[2] Yasgar, et al. Compound Management for Quantitative High-Throughput Screening. JALA. 2008 Apr;13(2):79-89. PMID: 18496600
[3] Inglese, et al. Quantitative high-throughput screening: a titration-based approach that efficiently identifies biological activities in large chemical libraries. Proc Natl Acad Sci. 1;103(31):11473-8. 2006. PMID: 16864780
[4] Quinn et al. A homogeneous method for investigation of methyl-dependent protein-protein interactions in epigenetics. Nucleic Acids Res., 38(2):e11. 2010. PMID: […]
[5] Baell,Holloway. New substructure filters for removal of pan assay interference compounds (PAINS) from screening libraries and for their exclusion in bioassays. J Med Chem. 53(7):2719-40. 2010. PMID: 20131845
NIH Molecular Libraries Probe Production Network [MLPCN]
NIH Chemical Genomics Center [NCGC]
Structural Genomics Consortium (SGC)
To each well of a 1,536w plate, 2ul of JMJD2A-Tudor (final 100nM) and 1ul biotinylated histone peptide methylated at Lys4 [b-H3(1-18)K4me3] (final 50nM) were added in 1x PBS buffer, pH 7.4, containing 0.01% Tween-20, using a nanoliter dispenser. Formation of a protein-peptide complex proceeded at room temperature for 30 min. A Kalypsys pin-tool transferred 23nl of library compound solution in DMSO to each well. Following a 30 min incubation of the protein-peptide complex with compounds at room temperature, a mixture of 40 µg/mL each streptavidin-coated donor and nickel chelate acceptor AlphaScreen beads (final 10 µg/mL) was added in a 1ul dispense for a final volume of 4ul, followed by a brief centrifugation (1000 rpm, 1 min). Plates were incubated protected from the light for 20 min at room temperature. Microplates were then read on an EnVision multilabel plate reader using the 1,536 plate HTS AlphaScreen aperture (excitation time 80 ms, measurement time 240 ms).
Potency is the fitted concentration of half-maximal effect; tags give direction and shape of the fitted curve.

Sequence of UniProt O75164 (O75164 whole entry, looked up, the tested form may be a part): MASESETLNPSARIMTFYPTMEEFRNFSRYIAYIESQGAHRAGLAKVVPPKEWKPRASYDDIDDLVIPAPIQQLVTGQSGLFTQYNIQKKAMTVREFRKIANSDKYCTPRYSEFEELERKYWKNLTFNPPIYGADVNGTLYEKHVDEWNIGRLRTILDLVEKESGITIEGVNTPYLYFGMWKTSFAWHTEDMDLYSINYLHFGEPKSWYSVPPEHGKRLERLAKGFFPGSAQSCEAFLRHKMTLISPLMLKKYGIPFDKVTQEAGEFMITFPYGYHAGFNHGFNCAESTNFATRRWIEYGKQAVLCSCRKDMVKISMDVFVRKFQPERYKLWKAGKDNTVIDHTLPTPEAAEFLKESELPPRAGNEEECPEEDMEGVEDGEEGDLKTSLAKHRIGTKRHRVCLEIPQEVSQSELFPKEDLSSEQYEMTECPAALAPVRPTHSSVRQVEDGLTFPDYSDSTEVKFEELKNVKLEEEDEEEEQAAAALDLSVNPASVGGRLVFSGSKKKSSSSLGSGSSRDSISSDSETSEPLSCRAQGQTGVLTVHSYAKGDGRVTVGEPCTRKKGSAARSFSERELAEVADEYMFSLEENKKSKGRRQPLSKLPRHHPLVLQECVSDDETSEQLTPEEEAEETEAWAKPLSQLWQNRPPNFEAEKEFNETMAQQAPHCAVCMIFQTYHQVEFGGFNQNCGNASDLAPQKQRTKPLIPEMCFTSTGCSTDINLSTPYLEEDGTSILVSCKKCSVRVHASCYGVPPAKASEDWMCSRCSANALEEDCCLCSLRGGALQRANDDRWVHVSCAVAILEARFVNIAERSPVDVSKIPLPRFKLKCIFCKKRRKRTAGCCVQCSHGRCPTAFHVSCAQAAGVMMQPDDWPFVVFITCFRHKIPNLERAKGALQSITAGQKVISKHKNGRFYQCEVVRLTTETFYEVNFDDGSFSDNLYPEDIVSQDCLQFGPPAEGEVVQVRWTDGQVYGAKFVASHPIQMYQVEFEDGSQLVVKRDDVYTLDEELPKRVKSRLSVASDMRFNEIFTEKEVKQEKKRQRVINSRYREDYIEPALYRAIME

Row | Structure (SMILES) | Potency
1 | CCc1nnc(NS(=O)(=O)c2ccc(N/C=C(\C=O)c3nc4cc(Cl)ccc4o3)cc2)s1 | inconclusive: 79.4 µM [inhibitor, partial curve]
2 | CCCCCCc1c(C)c2ccc(OCC(=O)N[C@@H](Cc3ccccc3)C(=O)O)cc2oc1=O | inconclusive: 89.1 µM [inhibitor, single point]
3 | CC(c1ccccc1)N1C(=O)c2ccc(C(=O)Nc3ccccc3C(=O)O)cc2C1=O (centres undefined) | inconclusive: 79.4 µM [inhibitor, partial curve]
4 | Cc1ccc(S(=O)(=O)Oc2ccc(/C=C3/C(=N)N4C(=NC3=O)SN=C4S(C)(=O)=O)cc2)cc1 | inconclusive: 56.2 µM [inhibitor, partial curve, poor fit]
5 | CCCOc1ccc(C2C(C(=O)c3cc4ccccc4o3)=C(O)C(=O)N2c2cc(C)on2)cc1 (centres undefined) | inconclusive: 56.2 µM [inhibitor, partial curve]
6 | COc1cc(/C=C2\C(=N)N3N=C(S(C)(=O)=O)SC3=NC2=O)ccc1OCCOc1ccccc1C | inconclusive: 31.6 µM [inhibitor, full curve]
7 | Cc1c(CC(=O)O)c(=O)oc2c(C)c3occ(-c4ccc(Br)cc4)c3cc12 | inconclusive: 50.1 µM [inhibitor, partial curve]
8 | CS(=O)(=O)C1=NSC2=NC(=O)/C(=C\c3ccc(OC(=O)c4ccco4)c(Br)c3)C(=N)N21 | inconclusive: 44.7 µM [inhibitor, partial curve, poor fit]
9 | CCOc1cc(/C=C2/C(=N)N3C(=NC2=O)SN=C3S(=O)(=O)CC)ccc1OC(=O)c1ccco1 | inconclusive: 44.7 µM [inhibitor, partial curve]
